The list shows a part of the results.

To fix the notation:
T1: UNK ZnF1-3 (human, UniProt Q9C0B0 31-174)
T1 sequence: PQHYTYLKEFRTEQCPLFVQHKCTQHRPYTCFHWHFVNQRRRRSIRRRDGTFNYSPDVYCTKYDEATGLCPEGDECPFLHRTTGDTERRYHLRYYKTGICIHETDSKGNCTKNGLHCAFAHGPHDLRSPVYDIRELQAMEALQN

B1: chr3:110853029:110853030:+_ENSG00000177707_ENST00000485303|hu_hu|motif|central (ssRNA)
RNA: GGGAGUUCUACAGUCCGACGAUCUGGUUGCUAAACAUACCACUCCCUCCUGGAAAUUACGGAACCAUCUACAUGUGAAACGGAGUCAUCUUCGUUUUCAUCAUAAUGUUCAUCACUGACAAACUUCAUUCCCAUUUUUAGAUCCAACAGAGGAUUGAGCAUCA
B2: chr2:30381511:30381512:+_ENSG00000119801_ENST00000261353|hu_hu|FALSE|FALSE (ssRNA)
RNA: GGGAGUUCUACAGUCCGACGAUCCAUGUGGCGGCCAGUGAGCAUGACCCGAUCUUGAACUUCACUGUACUGCAGGUUAACUACCUUGUUAAAAAGAAAUGCUCUGCCAGUGGCGCCUGUGAAACGAGUGGAGAUGAGUUCUGACAACAGAGGAUUGAGCAUCA
B3: 105360694_105360814_4497_3pUTR_ENSG00000107957_ENST00000369774|human|control|control (ssRNA)
RNA: GGGAGUUCUACAGUCCGACGAUCAAAAUAAGACGCAAACCAAAGGCCUGACAUAUAAGCCCCAAAUCAACAAACCUCUCCCGAAACAUGCAAAGGAACUGCCCGCCCAGAAAUACCCAAAAUAGUCUGUGCAGAUUAGGAAGACAACAGAGGAUUGAGCAUCA
B4: 21531409_21533144_2991_CDS_ENSMUSG00000033653_ENSMUST00000117598|mouse|control|control (ssRNA)
RNA: GGGAGUUCUACAGUCCGACGAUCGACUUCUUCCUCUCUCAAUGGGUCGUGCAGGUAGCAGUCAAUGAUCUUGUCAUACUGGUGUUCCCGCUCAUACAUAAAUUCACAGAUUUGAUAGAAUUCUGCCUUUUCUGCCAUGCGGAUCAACAGAGGAUUGAGCAUCA
B5: chrX:35985205:35985206:-_ENSMUSG00000048970_ENSMUST00000058265|mus_mus|motif|central (ssRNA)
RNA: GGGAGUUCUACAGUCCGACGAUCUUUGUUAGGGGCUUGCAGAUGGUGAUGCUCAUGGUGGUGCAUUCUGUUUCCAAUCCGGAUGUGGCCUAGCAUAGUGAUCAAGGCACAGAAGAUGCUUCCAAGCAUCACACCCUUCAAAAACAACAGAGGAUUGAGCAUCA
B6: chr6:114281168:114281169:-_ENSG00000196591_ENST00000368632|hu_hu|hu_hu_hu_mus_True|18_98 (ssRNA)
RNA: GGGAGUUCUACAGUCCGACGAUCUUCCAUUUUUCGGUAUAAGCCAUAAUUUAGCAGCAAGUUAUGAGUCAUCCGGAUUCUAUGAGGCUUCAUGGGAUGACCCUGGCCAUAAUAAUAAUUUCCAAUAUCACCAUCAUAGUAGUACAACAGAGGAUUGAGCAUCA
B7: chr4:17845017:17845018:+_ENSG00000109805_ENST00000514176|hu_mus|hu_hu_hu_mus_False|8_8 (ssRNA)
RNA: GGGAGUUCUACAGUCCGACGAUCGCUCUCUUAACUUGUAUCUUCAUUAAGGAACUCUGCAAGGUUAAGUUUACUUUUCUGUAGCGCAGCUGUUUUGGCUCGUCUGGGUAAUCUCAUCUUCAUUUCUAUUCUGGUUCCAUGAUCCAACAGAGGAUUGAGCAUCA
B8: chr2:71279510:71279511:+_ENSMUSG00000027018_ENSMUST00000028408|mus_hu|FALSE|FALSE (ssRNA)
RNA: GGGAGUUCUACAGUCCGACGAUCCAUAAACUCUAAACAGUAUUUUAAAAUAUACAAUCUCUCCAAAAGAAAAUAUUCAACUAAAGAUAGAUAACUUUUAGUAUAAGCAAAAUGUCACAAGAUUUUAAAAUUAAAGUCAUCAGACAACAGAGGAUUGAGCAUCA
B9: 100860264_100860384_2031_CDS_ENSMUSG00000027864_ENSMUST00000102694|mouse|control|control (ssRNA)
RNA: GGGAGUUCUACAGUCCGACGAUCGCCCGCAUCGGAGACCUGAGUCUGGUACAUUCGGUAUCGGAACUCAUCCUCCUGAACUUUCUCCAACACCACGCCAUCCACCCGAGACGCGUCGGUCCAGUUCUCCAGCUUCACCACGGACAACAGAGGAUUGAGCAUCA
B10: chr7:130122267:130122268:+_ENSMUSG00000030779_ENSMUST00000098062|mus_mus|motif|central (ssRNA)
RNA: GGGAGUUCUACAGUCCGACGAUCAUUUAUAUCCAUAUUCAACUGAACUGUCAUCAAAAUACAAUUUAUUUACAGUGGGUGCGGUGGUCAGUGGGUAUUCUAAGUGAGUUACGUCACUGAAACAUUAUAAAGGUAAAAGCAAUUCAACAGAGGAUUGAGCAUCA
B11: chr7:90019092:90019093:+_ENSMUSG00000057706_ENSMUST00000082237|mus_mus|FALSE|FALSE (ssRNA)
RNA: GGGAGUUCUACAGUCCGACGAUCGAAACACACAAAACAGUCCACACAUCCCAUAGCACAAUUAUUAAUCAUCUUCAUAAUUACUGUUCAUUUUUCUACUUCAAGAAAAUGGAAAACUUGUGGGGUUUUCUUUUGGAAGCUUCCCAACAGAGGAUUGAGCAUCA
B12: chr8:24034084:24034085:+_ENSMUSG00000031540_ENSMUST00000044331|mus_hu|FALSE|FALSE (ssRNA)
RNA: GGGAGUUCUACAGUCCGACGAUCAUUCCCAUCAACCUCAAAGACAGAAAUAUUAUUCUUUCUGUAAAUCUCAUUGGCAGGAGGAUGGAACCAACCACAUUUCUUCAUGUGCUGCUGCAGAAUAGUUCUACUUUUCAUAUAUUUCAACAGAGGAUUGAGCAUCA
B13: chr3:10015032:10015033:+_ENSMUSG00000027533_ENSMUST00000029046|mus_mus|mus_mus_mus_hu_True|48_58 (ssRNA)
RNA: GGGAGUUCUACAGUCCGACGAUCGUUUUUACCAUCACAAGUGAUGAUACAAUCUGGCUUGGCCAUUGCGCCCAUUUUCCUAAGAGCCAGUCCUACUCCUAGCUCCUUCAUGUAUUCAUCAAAGCCUUUGCUGUCCACCAGGCGCAACAGAGGAUUGAGCAUCA
B14: chr7:148679106:148679107:+_ENSMUSG00000025511_ENSMUST00000117634|mus_hu|FALSE|FALSE (ssRNA)
RNA: GGGAGUUCUACAGUCCGACGAUCACCAGGACCAGUGGGGCCACCUCCAGGAUGCCAAGACCCGGCUCCUCCAGCGCCAACCUGUUUUCCAGGAGGCUGGGGGCCACAGGCUGGCUCCCGUGUGAACACUGCUUUGGAGAAUACCAACAGAGGAUUGAGCAUCA
B15: chr7:5008886:5008887:+_ENSMUSG00000035228_ENSMUST00000045543|mus_mus|motif|central (ssRNA)
RNA: GGGAGUUCUACAGUCCGACGAUCCCCUUCAUCAUGGCCCAUCUCCGAACCCAAUGCCAUAAAUGGAGAAACAACCACCCCGGACUUCCAUUCUUGGGGUAGGGGGUCCAUCCUGCAAGCGUUCCCCUGUCCCAGCCGCCCAUUCAACAGAGGAUUGAGCAUCA
B16: chr4:56736951:56736952:+_ENSG00000090989_ENST00000381295|hu_hu|FALSE|FALSE (ssRNA)
RNA: GGGAGUUCUACAGUCCGACGAUCGUUGCUUUCAGAGAUCUGAUCCAUUUGUUCUUUUACACUUUGGAGCAUUUCCUCAUAACUGCUCAGUUUCAAUUCAAUCUGAUCUACCUCCUUUAGAGCCUCAUCUAGCAAUUUCAUCAGCAACAGAGGAUUGAGCAUCA
B17: chr15:83907949:83907950:-_ENSMUSG00000018865_ENSMUST00000082365|mus_mus|FALSE|FALSE (ssRNA)
RNA: GGGAGUUCUACAGUCCGACGAUCCUGGUAUUAUAGAUAAAAGUCAAACGUGAGGUCACACUUCCCCAUCUUCUGUUUGUACACUAGAUCAAACUUCUCGUUCAUGGAGACGGUGAAGAUGUCCUUCCACAGCCCAACUCUUCCCAACAGAGGAUUGAGCAUCA
B18: chr12:48362563:48362564:+_ENSG00000134291_ENST00000256686|hu_hu|hu_hu_hu_mus_False|8_98 (ssRNA)
RNA: GGGAGUUCUACAGUCCGACGAUCUCCGUCAAGCCCUUCAAGCCCCACUUGCGGGGGAAACUGUAAUCACUUUGUAUGGGGAAGGAAAAGAAACGCCAAAAACUUUCCAAAAAGCGGGGGUGGGGUGUCCCAGGCCUGGGAGGUCAACAGAGGAUUGAGCAUCA
B19: 62445508_62445848_479_CDS_ENSG00000162191_ENST00000301935|human|control|control (ssRNA)
RNA: GGGAGUUCUACAGUCCGACGAUCGCGCUGCCGUUCCCGUUCCAAUGCCUCCCGUUCCUCUCUUUCUUCACGCUCCCGCUGCUUCUGGGCCACCAGCUCCAACAUCCUCUUAGUUUGUUCCUGUCUUUCCUCUUCACUCAAAGCCAACAGAGGAUUGAGCAUCA
B20: 5832715_5832835_342_3pUTR_ENSG00000099219_ENST00000339450|human|control|control (ssRNA)
RNA: GGGAGUUCUACAGUCCGACGAUCGCGGUGUCCAGCGGCCCCGCGUAGCACGAGCUGCUGCAGCGAGAGCUGCACCAGCGUCCGCAGCGCGAUCAGGUAGAGCGCGAGCCCCAGCGCGGCGCGCACCUCAGACAGCCCGGUCCCCAACAGAGGAUUGAGCAUCA
B21: chr17:62498654:62498655:-_ENSG00000108654_ENST00000581693|hu_hu|FALSE|FALSE (ssRNA)
RNA: GGGAGUUCUACAGUCCGACGAUCUUGGUUUCCACAAAAACAAUGGUUUUAUUCUCCUUCUCACUCAUGAUCUCUUCCAUUAGACGAAUAAGUUUUUCAUCCUUUUCUACGUCAUGACACACAUCCACAAUCUGAAGAAUGUUGCAACAGAGGAUUGAGCAUCA
B22: chr5:138118867:138118868:+_ENSG00000044115_ENST00000302763|hu_hu|motif|central (ssRNA)
RNA: GGGAGUUCUACAGUCCGACGAUCAGCCAAAACAUGGGCCUUCUUAGAACGACCUCUCUUCUUAUUAGAGGGCCCUUUACGGUUGGUGUUUACAAGGGUUGUAACCUGUGUAACAAGAGGCUCCAACAGUCUCUCAACUGCCAGCAACAGAGGAUUGAGCAUCA

In the assay the target is T1, UNK ZnF1-3. The assay can be described thus: nsRBNS (natural sequence RNA bind-n-seq); RBNS binding buffer (assumed for nsRBNS): 25 mM Tris pH 7.5, 150 mM KCl, 3 mM MgCl2, 0.01% Triton X-100, 500 ug/ml BSA, 20 U/ml SUPERase-In, 4 C; UNK is unkempt and MSI1 is Musashi-1; names of the RNAs are library labels; protein concentration not given here; high values mean tight binding.
For B1, the binding signal is 0.65 enrichment R.

B2 had a binding signal of 1.21 enrichment R. Next, B3: 1.89 enrichment R; B4: 0.824 enrichment R; B5: 0.948 enrichment R. For B6, the binding signal is 0.923 enrichment R. B7 gave a binding signal of 0.413 enrichment R.

In turn, B8 returned a binding signal of 1.33 enrichment R.

With B9, the binding signal is 0.964 enrichment R. Next, B10: 2.62 enrichment R. Next, B11: 1.27 enrichment R; B12: 1.1 enrichment R; B13: 0.608 enrichment R.

Molecule B14 gave a binding signal of 0.866 enrichment R. The value for B15 was 1.44 enrichment R; that for B16 was 0.556 enrichment R. B17 registered a binding signal of 0.59 enrichment R. As for B18, the binding signal came out at 2.29 enrichment R. In turn, B19 displayed a binding signal of 0.496 enrichment R. The value for B20 was 0.693 enrichment R; that for B21 was 0.527 enrichment R. The value for B22 was 0.85 enrichment R.

The values above are taken from article PMC12136788.
